# In paper PMC4336329 (PLoS ONE, 2015):
# About 14,000 (4.5%) of roughly 310,000 compounds showed an effect of 50% or more. Effects have a minus sign here. The list shows a part of the results. Where a SMILES comes first, the peptide text is derived from it. The star is where a group is joined. Boc = CC(C)(C)OC(=O)*
# Molecular target: human ether-à-go-go-related gene (hERG) potassium channel (human, UniProt Q12809)
# Assay: primary screen, population patch clamp on CHO cells stably expressing hERG
# 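Note: peak tail current of the secondary pulse compared with the same well before compound.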
# Sequence of human ether-à-go-go-related gene (hERG) potassium channel (Q12809 whole entry, looked up): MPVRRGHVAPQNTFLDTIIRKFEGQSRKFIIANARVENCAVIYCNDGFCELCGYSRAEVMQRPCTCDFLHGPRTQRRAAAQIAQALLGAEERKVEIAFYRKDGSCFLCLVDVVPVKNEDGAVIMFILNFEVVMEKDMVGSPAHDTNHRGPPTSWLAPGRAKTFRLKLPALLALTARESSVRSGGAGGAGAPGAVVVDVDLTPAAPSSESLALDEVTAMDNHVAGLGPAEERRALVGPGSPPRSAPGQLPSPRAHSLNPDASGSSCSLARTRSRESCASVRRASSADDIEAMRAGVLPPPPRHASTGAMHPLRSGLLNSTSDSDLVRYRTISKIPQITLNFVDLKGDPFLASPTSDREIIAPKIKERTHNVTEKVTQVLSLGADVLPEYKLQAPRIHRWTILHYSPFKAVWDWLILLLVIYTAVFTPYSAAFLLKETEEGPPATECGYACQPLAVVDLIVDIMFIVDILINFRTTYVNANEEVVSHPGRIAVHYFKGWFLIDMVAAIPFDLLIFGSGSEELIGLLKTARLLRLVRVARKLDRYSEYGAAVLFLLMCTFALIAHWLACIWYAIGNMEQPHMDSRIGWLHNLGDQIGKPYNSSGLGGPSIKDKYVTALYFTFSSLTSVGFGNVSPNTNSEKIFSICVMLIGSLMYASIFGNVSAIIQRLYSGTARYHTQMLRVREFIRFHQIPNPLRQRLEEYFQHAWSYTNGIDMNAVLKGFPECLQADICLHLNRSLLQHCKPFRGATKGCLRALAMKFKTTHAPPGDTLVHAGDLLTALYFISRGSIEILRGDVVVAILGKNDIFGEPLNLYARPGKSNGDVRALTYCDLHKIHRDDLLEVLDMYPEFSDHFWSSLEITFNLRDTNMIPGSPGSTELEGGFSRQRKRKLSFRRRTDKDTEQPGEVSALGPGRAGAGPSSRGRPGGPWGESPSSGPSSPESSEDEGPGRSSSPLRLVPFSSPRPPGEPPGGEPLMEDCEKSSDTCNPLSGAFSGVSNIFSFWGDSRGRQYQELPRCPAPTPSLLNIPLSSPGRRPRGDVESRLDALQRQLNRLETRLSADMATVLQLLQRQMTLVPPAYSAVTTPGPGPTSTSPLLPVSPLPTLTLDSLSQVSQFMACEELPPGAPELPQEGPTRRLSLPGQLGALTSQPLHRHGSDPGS
row,Compound,"hERG current change (%, negative = inhibition) at 10uM"
1,CC(NC(=O)C(NC(=O)C(Cc1c[nH]c2ccccc12)NC(=O)OC(C)(C)C)C(C)C)C(N)=O (stereo not drawn) (Boc-Trp-Val-Ala-NH2; configuration not given here),20.7%
2,CC(=O)c1cccc(NS(=O)(=O)c2ccc(-c3cc(C)no3)s2)c1,5.05%
3,COc1cc(SC)ccc1C(=O)NCc1ccc(C)cc1,-25.8%
4,C=CCNC(=S)N/N=C/c1ccc(C)cc1C,17.3%
5,O=C(CSc1nc(O)cc(=O)n1-c1ccccc1)Nc1ccc2c3c(cccc13)CC2,7.26%
6,Cc1[nH]nc(SCC(=O)N(C)c2ccccc2)c1[N+](=O)[O-],15.5%
7,COc1cc(/C=N\NC(=O)C2C(=O)NCC2c2ccccc2)cc(OC)c1O (centres unmarked),7.57%
8,O=C1C(=O)N(CCN2CCOCC2)C(c2cccnc2)/C1=C(/O)c1ccccc1 (centres unmarked),13.5%
9,COc1cc2ccccc2cc1C(=O)Nc1nnc(-c2ccncc2)o1,-52.3%
10,CN(C)C(=O)Oc1ccc2oc(=O)cc(-c3cc4ccccc4o3)c2c1,10.7%
11,C/C(=N\NC(=O)c1nnn(-c2nonc2N)c1CSc1ccccc1)c1cccnc1,13.2%
12,O=C(COC(=O)CCCOc1ccccc1)NNC(=O)c1ccc([N+](=O)[O-])cc1,-16.6%
13,COc1cc(/C=N/N2CCOCC2)ccc1OCc1ccc(Cl)cc1,-2.41%
14,Cc1cc(NS(=O)(=O)c2ccc(NC(=S)Nc3ccc(Cl)cc3C)cc2)no1,12.8%
15,CC(=O)Nc1cccc(C(=O)OCc2ccccc2)c1,-0.288%
16,O=C(Nc1ccc(F)cc1)c1cnc(-c2ccccc2)nc1-c1ccccc1,-0.312%
17,Cn1ncc2c(NNC(=O)c3ccccc3Cl)ncnc21,10.1%
18,C/C(CC(=O)Nc1c(Cl)cccc1C(F)(F)F)=N\NC(=O)c1cnccn1,7.36%
19,CN1CCN(C(=S)c2ccc(-c3cc(Cl)ccc3Cl)o2)CC1,-20.7%
20,O=[N+]([O-])c1ncc(Br)cc1Nc1ccccc1,6.44%
21,COc1ccc(Cn2nnnc2C(CC(C)C)N2CCC(C(N)=O)CC2)cc1 (centres unmarked),-4.8%
22,COc1ccc(NC(=O)c2nnn(CC(=O)Nc3ccc4c(c3)OCO4)c2N)cc1OC,13.9%
23,O=C(NNC(=O)c1ccccc1F)C1=NN(c2ccccc2)C(=O)CC1,6.13%
24,Cc1ccc(N(C(=O)c2csnn2)C(C(=O)NC(C)(C)C)c2ccncc2)cc1 (centres unmarked),-3.09%
25,CCCn1cnnc1CNC(=O)C1CCC(=O)N(CCc2ccc(OC)cc2)C1 (centres unmarked),22.5%
26,CCOC(=O)c1cc(-c2ccccc2)sc1NC(=O)COC,-13.6%
27,COCCNC(=O)NC12CC3CC(CC(C3)C1)C2,22.2%

row,Compound,"hERG current change (%, negative = inhibition) at 10uM"
1,Cc1cccc2sc(N(CCN(C)C)C(=O)/C=C/c3cccs3)nc12.Cl,-20.4%
2,CCc1cc2cc(C)ccc2nc1SCC(=O)N1CC(=O)Nc2ccccc21,-7.37%
3,O=C1[C@H]2[C@@H](/C=C/c3ccccc3)N3C(=O)CN(Cc4ccccn4)C(=O)[C@@]3(Cc3ccccc3)[C@H]2C(=O)N1c1ccccc1,-26.9%
4,Cc1ccc([N+](=O)[O-])cc1S(=O)(=O)Nc1ccc(N2CCOCC2)cc1,25.8%
5,CC(=O)NC(=S)Nc1ccc(NC(=O)COc2ccc(C(C)C)cc2)cc1,13.3%
6,CCOc1ccc(C2CC(c3cccc(C)c3)n3nc(N)nc3N2)cc1 (centres unmarked),-33.9%
7,CN(C)CCCN1c2ccc([N+](=O)[O-])cc2CCc2cc([N+](=O)[O-])ccc21,-50.3%
8,Cc1cc(NC(=O)CSc2n[nH]c(-c3cccs3)n2)no1,6.89%
9,Cc1cccc(/C=N/NC(=O)CN2CCCCCCC2)c1,-45.9%
10,CN(C)S(=O)(=O)n1cnc(C(CCO)c2ncn(S(=O)(=O)N(C)C)c2CCCO)c1 (centres unmarked),8.87%
11,COc1cc(Cl)cc(/C=C/c2ccc3cccc(O)c3n2)c1OC,13.7%
12,Cc1c(C(=O)N2CCN(C/C=C/c3ccccc3)CC2)oc2c(F)cccc12,-35.7%
13,CC(C)n1c(O)c(N=NC(=O)CNC(=O)Cc2ccc(Cl)cc2)c2ccccc21,-39.1%
14,CCN(Cc1ccncc1)C(=O)c1cc(COc2ccc(OC)cc2Cl)on1,-22.6%
15,CCCc1cc(C(=O)NNC(=S)Nc2cccc(C)c2)cs1,8.4%
16,CCOc1ccc(-c2n[nH]c(C)c2-c2ccccn2)c(O)c1,13.6%
17,CCn1c(=O)c(C(=O)NNC(=O)c2cccc(Cl)c2)c(O)c2ccccc21,32.4%
18,CC(C)(C)NC(=O)C(c1ccncc1)N(C(=O)C1CSC(=O)C1)c1ccccc1 (centres unmarked),12.3%
19,COc1ccc(NC(=S)N(CCC(C)C)C(C)c2ccncc2)cc1 (centres unmarked),-42.2%
20,c1ccc2c(Nc3ccc(N4CCOCC4)cc3)nc(N3CCOCC3)nc2c1,-48.5%
21,COc1ccccc1NC(=S)NCCc1c[nH]c2ccccc12,-1.56%
22,CCNS(=O)(=O)c1ccc(CCC(=O)Nc2ccc3c(c2)OCO3)cc1,14.4%
23,COc1ccc(-c2cc(C(F)(F)F)nc(-n3cc(Br)cn3)n2)cc1,-0.892%
24,O=C(O)c1ccc(N/N=C/c2cc3cc4c(cc3nc2Cl)OCCO4)cc1,-4.78%
25,Nc1nnc(SCCCC(=O)c2ccc(F)cc2)s1,-7.48%
26,Cc1ccc2cc(C)c3nnc(SCc4ccc(C(=O)O)cc4)n3c2c1C,19.7%
